Measurements reported in the supplement of paper PMC11417369.
± gives the standard deviation of the averaged measurements. Some of the results follow.

Tested on: PfAP2-I AP2 domain 3 (GST-tagged)
Experiment: gcPBM binding intensity (ln(normalized median fluorescence intensity)); higher = stronger DNA binding
How it was run: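 GST-tagged P. falciparum DNA-binding domains, expressed in E. coli (about 25 μg on average), were applied for 1 h to an Agilent 4 × 180k array of primer-extended double-stranded 36-bp intergenic genomic probes plus negative controls. The binding buffer was 1× PBS with 1% milk, 0.2 mg/ml BSA, 0.5% salmon testes DNA and 0.03% Triton X-100. Bound protein was detected with Alexa488 anti-GST antibody and scanned at 488 nm. Binding intensity is the highest Masliner-normalised natural-log median intensity across replicate spots of either probe orientation.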

How did the “gcPBM binding intensity (ln)” value turn out when ATAGAAGGCAACTTGGTGCACAAAAAAAAAAATAAT was run?
Its value is 11.6 ± 0.25.

With “TTTTTTAAAAGATATATAATATGTATGAATATTCAA [XGTACX_negctrl_site380]” as the sequence, how does the “gcPBM binding intensity (ln)” value read?
Its value is 7.31 ± 0.49.

Which “gcPBM binding intensity (ln)” value does the source give for “AATGTGAAAAAAAAAAGTACAGACCTAATCAAAAAA [XGTACX_site2486]” here?
The value was 8.09 ± 0.38.

For “CGAACAAACAAATAAACACACAAAAAAAAATATATA [CACACA_site1825]”, which “gcPBM binding intensity (ln)” value is on record?
The value was 7.62 ± 0.61.

Which “gcPBM binding intensity (ln)” value does the source give for “ATACTTATGATAAATACACACTTGAAATTAAGGATT [CACACA_site4772]” here?
The value was 7.64 ± 0.57.

Which “gcPBM binding intensity (ln)” value does the source give for “CAACATATGCATATGTGTACATATTTTATTTTCAAC [XGTACX_site2237]” here?
Its value is 7.76 ± 0.47.

How did the “gcPBM binding intensity (ln)” value turn out when “ATATACTCATTAATAACACACAATATGATAACAAAT [CACACA_site5913]” was run?
The value was 7.99 ± 0.59.

For “ACATACATATGTAAATGTACAAAATATCCATAGATT [XGTACX_site2782]”, which “gcPBM binding intensity (ln)” value is on record?
Its value is 7.54 ± 0.77.

For “AATATATTTCATTTTTGTACACACAACGTTGGAGGG [XGTACX_site6461]”, which “gcPBM binding intensity (ln)” value is on record?
The value was 8.59 ± 0.47.

How did the “gcPBM binding intensity (ln)” value turn out when AGTGTTTTTTATAAAGTGCAATATAAAAACAAAATG was run?
Its value is 11.3 ± 0.75.

With “ATGTTATATATGTATTGTACGTATTTTGTATATTAT [XGTACX_site6607]” as the sequence, how does the “gcPBM binding intensity (ln)” value read?
Its value is 8.12 ± 0.23.

Which “gcPBM binding intensity (ln)” value does the source give for “AATTTTTTTTTATTGTGTACTTATTTTTTTATATTT [XGTACX_site917]” here?
Its value is 8.14 ± 0.4.

With “TTTTATTTCATTTGTTGTACTTTCAAAATATTATTA [XGTACX_site2192]” as the sequence, how does the “gcPBM binding intensity (ln)” value read?
The value was 8.09 ± 0.47.

For “AAGAATAAAGAATGGTGTACATGCATATAAAATATT [XGTACX_site5707]”, which “gcPBM binding intensity (ln)” value is on record?
Its value is 8.13 ± 0.77.

How did the “gcPBM binding intensity (ln)” value turn out when “GTAATTTTGAGATGATGTACATATTTTTTCCTTGTC [XGTACX_site4103]” was run?
Its value is 7.81 ± 0.69.

Which “gcPBM binding intensity (ln)” value does the source give for “GATAAATCATATATAACACACATATGAATATTACAA [CACACA_site1321]” here?
The value was 7.72 ± 0.52.

With “AAAAGAAACTTATTTACGCACACTTTATTGCATGTT [CACACA_site3887]” as the sequence, how does the “gcPBM binding intensity (ln)” value read?
The value was 9.18 ± 0.19.

With “TAAGATATATTTTTTTGTACACATAATAAAATAATA [XGTACX_site8938]” as the sequence, how does the “gcPBM binding intensity (ln)” value read?
Its value is 7.59 ± 0.38.

With “ATAATGTAGAACTAGAGTACATAAAAAAATAAACAT [XGTACX_site5205]” as the sequence, how does the “gcPBM binding intensity (ln)” value read?
The value was 8.32 ± 0.57.

Which “gcPBM binding intensity (ln)” value does the source give for “GCTACACAATTTTTTAGTACACACATATAAATATAT [XGTACX_site3131]” here?
Its value is 8.4 ± 0.21.

How did the “gcPBM binding intensity (ln)” value turn out when “TTTTTTTTTTTTTTTTTTTGTCTTATATATTACGGA [CACACA_negctrl_site322]” was run?
The value was 8.04 ± 0.71.

For “TATATATTATCAAGTGGACACACGAAAAAAAGGAAA [CACACA_site3741]”, which “gcPBM binding intensity (ln)” value is on record?
The value was 8.03 ± 0.6.

Which “gcPBM binding intensity (ln)” value does the source give for “TAAAGATTGTTCAGTGCATGTTGGCCTGTAAATGGA [TGCATGCA_site315]” here?
Its value is 8.47 ± 0.36.

“TTTTTCATATTATACTTTTATATACATATATAAAAA [XGTACX_negctrl_site281]” was tested. Which “gcPBM binding intensity (ln)” value did it give?
The value was 7.93 ± 0.64.

For “ATAAACTGAGTGGTTACACACAAAACCAATAACTTT [CACACA_site7601]”, which “gcPBM binding intensity (ln)” value is on record?
Its value is 7.62 ± 0.67.

“ATATAGACACACACATGTACATATGCCAACGTGATA [XGTACX_site3828]” was tested. Which “gcPBM binding intensity (ln)” value did it give?
Its value is 7.94 ± 0.49.

For “ACTATATAATATAATATATTATAATATATTATATTA [GTGCAC_negctrl_site140]”, which “gcPBM binding intensity (ln)” value is on record?
The value was 7.63 ± 0.32.

“TTCTTAAAATATGAAAGTACATAGGCATTATATATT [XGTACX_site8400]” was tested. Which “gcPBM binding intensity (ln)” value did it give?
Its value is 7.73 ± 0.49.

Which “gcPBM binding intensity (ln)” value does the source give for “TATGCAAGGAACCACACACACACACCGAAATGTATA [CACACA_site4573]” here?
Its value is 7.79 ± 0.52.

With “TTTTTTATTAGTATCTGTACACATTGGTATTTGTAT [XGTACX_site6682]” as the sequence, how does the “gcPBM binding intensity (ln)” value read?
Its value is 7.96 ± 0.52.

“AATAAATAAATATATATATATATATAATATCATAAA [CACACA_negctrl_site337]” was tested. Which “gcPBM binding intensity (ln)” value did it give?
Its value is 7.73 ± 0.27.

How did the “gcPBM binding intensity (ln)” value turn out when “TATATATATATATATTGTACTTATGTTTATATTCAT [XGTACX_site6258]” was run?
Its value is 9.34 ± 0.41.

How did the “gcPBM binding intensity (ln)” value turn out when “TTCTTTAAAATATTATGTACACATTGCGAACAGTTT [XGTACX_site5418]” was run?
The value was 7.87 ± 0.57.

“AGTTTATTTATATACACACACATATAAATATTATAG [CACACA_site6522]” was tested. Which “gcPBM binding intensity (ln)” value did it give?
The value was 7.74 ± 0.52.

Which “gcPBM binding intensity (ln)” value does the source give for “ATATATATTTATGTATCACACACAAAAAAAAAAAAT [CACACA_site7973]” here?
Its value is 7.69 ± 0.54.

With “TCAAGAATTATATAAACACACATACATACACCCATA [CACACA_site5126]” as the sequence, how does the “gcPBM binding intensity (ln)” value read?
Its value is 8.1 ± 0.16.

How did the “gcPBM binding intensity (ln)” value turn out when “ATATTGATGTATTGTTTTTTTTTTTTCTTTTTTTTT [CACACA_negctrl_site1238]” was run?
Its value is 7.47 ± 0.58.

For “CCATGCATACATTCTTGTACACATTTCTATTATGAG [XGTACX_site39]”, which “gcPBM binding intensity (ln)” value is on record?
Its value is 8.16 ± 0.68.

How did the “gcPBM binding intensity (ln)” value turn out when “GAATTCAACAAAAAAAGTACTCTACATAAAATAATG [XGTACX_site175]” was run?
Its value is 7.83 ± 0.23.

Which “gcPBM binding intensity (ln)” value does the source give for “TTATAAAAGGACTTCTGTACGAATTTTTTTTAATAA [XGTACX_site1411]” here?
Its value is 7.41 ± 0.12.

How did the “gcPBM binding intensity (ln)” value turn out when “GAACGAAACTTTCTTACACACATTGAAATTTTTTTC [CACACA_site1779]” was run?
Its value is 7.94 ± 0.42.

For “TACTCACAATGGGGTCTACAAAAAAAAAAAAATAAA [XGTACX_negctrl_site229]”, which “gcPBM binding intensity (ln)” value is on record?
The value was 7.73 ± 0.042.

Which “gcPBM binding intensity (ln)” value does the source give for “ATGATCATAAAACACACACACAAAAAAAAAAAAAAA [CACACA_site1805]” here?
The value was 8 ± 0.52.

Which “gcPBM binding intensity (ln)” value does the source give for “ATTAATTTTATATATGCACACAAAATATGTTCATAT [CACACA_site9350]” here?
The value was 9.13 ± 0.099.

With “TTATAATAAACCTATACACACATAAATAAATAAATA [CACACA_site2581]” as the sequence, how does the “gcPBM binding intensity (ln)” value read?
Its value is 7.83 ± 0.63.

For “TATGTATATATTTGTGCACACCAAAGTTTGATTTTA [CACACA_site1861]”, which “gcPBM binding intensity (ln)” value is on record?
Its value is 10.71 ± 0.014.

“AATAATATTTATTTTTGTACATATGTGCATTATAAA [XGTACX_site3682]” was tested. Which “gcPBM binding intensity (ln)” value did it give?
The value was 11 ± 0.98.

For “TTCTGGTGTAAATGCACACAGAAGAAGAAAAAAAAA [CACACA_site3685]”, which “gcPBM binding intensity (ln)” value is on record?
The value was 9.81 ± 0.54.

“TAATTTAATTTTCCAAGAAAAAAAAAAGAAAAAAGA [CACACA_negctrl_site1703]” was tested. Which “gcPBM binding intensity (ln)” value did it give?
The value was 7.59 ± 0.4.

“TAACATCCTAATGTCACACATGTTATAGGTTTAAAT [CACACA_site5649]” was tested. Which “gcPBM binding intensity (ln)” value did it give?
The value was 7.45 ± 0.54.

Which “gcPBM binding intensity (ln)” value does the source give for AATAGATTTTTATGCGTGCACACATTTAACAAAAAA here?
The value was 10.38 ± 0.035.

For “GTGCTAGTATTTAATACACACAATTGAAGTTCCTGA [CACACA_site1452]”, which “gcPBM binding intensity (ln)” value is on record?
Its value is 8.21 ± 0.33.

How did the “gcPBM binding intensity (ln)” value turn out when “TACACCAGTTGTGGGAGTACACAAAAAAAGGGAAAA [XGTACX_site6047]” was run?
Its value is 8.24 ± 0.25.

“TTCTGTTCAAAATATGAACACACACCGATATATATA [CACACA_site8637]” was tested. Which “gcPBM binding intensity (ln)” value did it give?
The value was 8.14 ± 0.79.

How did the “gcPBM binding intensity (ln)” value turn out when “AAAAATATAAAGAAATGTACTTATAAAAATCCCTAC [XGTACX_site3824]” was run?
The value was 7.81 ± 0.41.

How did the “gcPBM binding intensity (ln)” value turn out when “TGCAGTCTGGAGAAAAGTACACAGTATCTGGTAGCT [XGTACX_site2013]” was run?
The value was 7.71 ± 0.69.

For “AATATCATAAAATAAAGTACAAATATATATTGAAAA [XGTACX_site8813]”, which “gcPBM binding intensity (ln)” value is on record?
Its value is 7.79 ± 0.57.
